The list shows a part of the results.
system: PfAP2-HC AP2 domain (GST-tagged); experiment: gcPBM binding intensity (ln(normalized median fluorescence intensity)); higher = stronger DNA binding
Method in brief: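 An Agilent 4 × 180k array of primer-extended double-stranded 36-bp intergenic genomic probes, with negative controls, was incubated for 1 h with GST-tagged P. falciparum DNA-binding domains expressed in E. coli. Alexa488 anti-GST antibody detected bound protein, scanned at 488 nm. Binding intensity is the highest Masliner-normalised natural-log median intensity across replicate spots of either probe orientation.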

| Sequence | gcPBM binding intensity (ln) |
| --- | --- |
| TGCATTTTCCTATTTGCATGCAATTAAAATATAGAA [TGCATGCA_site862] | 9.32 |
| ATGTTTTAATGAGGTTTGCACTATATTTTAATGAAC | 9.64 |
| AACATATATACAGTAACACACACAAAAAAATATGAA [CACACA_site9323] | 10.4 |
| AAAAAACAAAAACACACACACACATATATATATATA [CACACA_site3654] | 10.9 |
| ATCACTAACATGTGTTGTACATAAAATTTGTTTGTT [XGTACX_site2207] | 9.74 |
| TTAACTTTTATATAGTGTACAAATAAATGCATACAG [XGTACX_site5958] | 9.56 |
| TTATTATTTAACATGTGGACACAAAAATTTAAGGGT [XGTACX_site4638] | 9.61 |
| TGCAAATTTAACAAAAAAAAAAAAAAAAAAAAAAAA [GTGCAC_negctrl_site64] | 8.76 |
| TCTACTACTTAATGGAGTACTAGCTTCATAATATTA [XGTACX_site7030] | 9.52 |
| TGAACACAGACAAATACACACAAAAAAAATAAATAA [CACACA_site4298] | 10 |
| TATTATGTATAAAGAAGTACTTTTTTTTTTTTTTTC [XGTACX_site201] | 9.4 |
| AAAAAATGGCTAGTTTGTACACAAAAGTTATTGCAT [XGTACX_site5381] | 9.92 |
| ATATAATATACTTATTGTACTTATTTAAAATACTAA [XGTACX_site4266] | 9.58 |
| AAAAAAAAATAAAAATGTACATATATAATATTATAT [XGTACX_site71] | 9.77 |
| TTTCTCAATTCTTAGAGTACATAAATAAAAAAAAAA [XGTACX_site7639] | 9.29 |
| AAGATAAAATTATGCACACATACGAATAATTTTAAA [CACACA_site1705] | 9.78 |
| TTTTACAATAACAATACACACTATAATATATATATA [CACACA_site4893] | 9.73 |
| CATATATATAAATACACACACACACCCCTTATAATT [CACACA_site4064] | 10.6 |
| TAGGAGCCGAAACACACACACAAAAAAAAAAAAAAA [CACACA_site1731] | 9.96 |

| Sequence | gcPBM binding intensity (ln) |
| --- | --- |
| AAAAGAATTTGAAGTCGTACAATATCTATTATATGA [XGTACX_site8275] | 9.55 |
| ATACCAATAATATACATACACACATAAAGGTTTATA [CACACA_site314] | 9.9 |
| AAGAAAAACTAAAGAGTTCTGTTCATATCTCTTTGG [TGCATGCA_negctrl_site549] | 9.46 |
| GGTATTACCTGTTTGTTATGTAGATGTTGCTAGGAT [GTGCAC_negctrl_site736] | 9.58 |
| TAATTCTTTATAATAACACACATTCATATACAATAA [CACACA_site2499] | 9.66 |
| ACTTAAATAATACATACACACATGTACATACAGAAA [CACACA_site1595] | 10.2 |
| TATTTATATAGACACACACACATATATTTATATTTT [CACACA_site7240] | 10.4 |
| TTTACATTTAATAAAAGTACTTATTTCATATACATA [XGTACX_site659] | 9.36 |
| TATATCAAATTCTAAACATGCACAAAAAACTTATAA [TGCATGCA_site510] | 9.51 |
| AAGGAAAAACCATTCGCACACACACCGAATATATAA [CACACA_site8403] | 10.2 |
| ATAATAATTTTATGCACACAGAAAAATACAAGGTTA [CACACA_site3510] | 9.94 |
| TTATTGGTTATATAAAGTACATTTGAAATATAATTG [XGTACX_site6553] | 9.48 |
| TTGCCTGACTTGTTCACACATATTTATGATATACAT [CACACA_site5783] | 9.97 |
| TTTTCTTGGTATATGATTTATCCTAAATAAGTAAAT [CACACA_negctrl_site294] | 9.2 |
| AAAAAAAATATATATATTAAAGTTTTAATTTTTATA [CACACA_negctrl_site497] | 9.5 |
| TTAGAATTTAGAGAAGTGCATATTAAGTTACGAATT [GTGCAC_site9861] | 9.53 |
| ATTATATATATATATAGTACTTTTTTTTTTTTTTTT [XGTACX_site8801] | 9.45 |
| AATATACACCCGTGTACACAAATATTTACAAAACGT [CACACA_site4786] | 9.85 |
| GTTACACCAACAAACACACACACACCCACCCACAAA [CACACA_site2427] | 10.6 |

| Sequence | gcPBM binding intensity (ln) |
| --- | --- |
| AAAAGGAATGAAAATTCACACAACTATAAATACATA [CACACA_site5337] | 9.81 |
| TGTATTATAATATTATGTACTTATAAATTTTATATT [XGTACX_site6432] | 9.59 |
| AATTTAAAGTTTTTTTTTTTTTTTTTTTTTTTTTTG [CACACA_negctrl_site1082] | 9.16 |
| TGGGTGGTAAAAATGTGTACATAAAAAAATAATGTT [XGTACX_site2235] | 9.69 |
| TCTCACATTCTTATGGGTACACATGAGAAATTATAA [XGTACX_site6799] | 9.37 |
| ATATTATTATAAAGTGGTACAATAAATGGTATTATA [XGTACX_site391] | 9.63 |
| TAAGCGTTTTTTAAAACACACATAAGAACTAAATGA [CACACA_site1670] | 9.63 |
| TATTTTCCATGAGGTAGTACACATTAAAAAATCGTT [XGTACX_site6887] | 9.52 |
| TTTCTTAAACCGTACAGTACACACCTTTATAATGTT [XGTACX_site434] | 9.87 |
| TAATATTAAAAAGAGACACACAAAAATATTAAAAAA [CACACA_site3120] | 9.89 |
| TTACACCTTAGGATCTGTACAAATATATGACAAATC [XGTACX_site4333] | 9.47 |
| AAGGTTTTGGGTTTTAATTAATTTAATATGATTATA [XGTACX_negctrl_site147] | 9.8 |
| ATATTAAATATATACAGTACACATTACAATACAATA [XGTACX_site3221] | 9.82 |
| CTTTGTAGTTGGTCCACACACATATCTGGAAGAATA [CACACA_site4834] | 9.72 |
| AGAATTATATACACAAGTACATAATGACATATATAT [XGTACX_site5617] | 9.73 |
| TAGATGTATTTTTAAAGTACTTTTTAATATATAATC [XGTACX_site1431] | 9.48 |
| TAAAAAATTATATTCACACACATACACATATATATA [CACACA_site545] | 10.3 |
| CGACTTTTAAAATATACACACATATAAATAAATATA [CACACA_site6523] | 9.74 |
| TTACAATATAATAAATGTACATATAACAAATATATA [XGTACX_site2199] | 9.69 |
